From paper doi:10.1101/2025.05.13.653810, “Spatial control of secretory vesicle targeting by the Ync13–Rga7–Rng10 complex during cytokinesis” (bioRxiv, 2025) come the findings set out here.

Common to all, as to assay: ectopic mistargeting to mitochondria (Tom20-GBP); mEGFP-, GFP- or mECitrine-tagged protein 1 mistargeted to mitochondria by Tom20 tagged with GFP-binding protein (GBP) nanobody in live S. pombe cells; recruitment of tdTomato-, mCherry- or RFP-tagged protein 2 to mitochondria seen by confocal microscopy
Assay [1] has as its target T1, mECitrine-Rng10-(201–1038) (S. pombe) (UniProt Q9P6L9).
T1 sequence: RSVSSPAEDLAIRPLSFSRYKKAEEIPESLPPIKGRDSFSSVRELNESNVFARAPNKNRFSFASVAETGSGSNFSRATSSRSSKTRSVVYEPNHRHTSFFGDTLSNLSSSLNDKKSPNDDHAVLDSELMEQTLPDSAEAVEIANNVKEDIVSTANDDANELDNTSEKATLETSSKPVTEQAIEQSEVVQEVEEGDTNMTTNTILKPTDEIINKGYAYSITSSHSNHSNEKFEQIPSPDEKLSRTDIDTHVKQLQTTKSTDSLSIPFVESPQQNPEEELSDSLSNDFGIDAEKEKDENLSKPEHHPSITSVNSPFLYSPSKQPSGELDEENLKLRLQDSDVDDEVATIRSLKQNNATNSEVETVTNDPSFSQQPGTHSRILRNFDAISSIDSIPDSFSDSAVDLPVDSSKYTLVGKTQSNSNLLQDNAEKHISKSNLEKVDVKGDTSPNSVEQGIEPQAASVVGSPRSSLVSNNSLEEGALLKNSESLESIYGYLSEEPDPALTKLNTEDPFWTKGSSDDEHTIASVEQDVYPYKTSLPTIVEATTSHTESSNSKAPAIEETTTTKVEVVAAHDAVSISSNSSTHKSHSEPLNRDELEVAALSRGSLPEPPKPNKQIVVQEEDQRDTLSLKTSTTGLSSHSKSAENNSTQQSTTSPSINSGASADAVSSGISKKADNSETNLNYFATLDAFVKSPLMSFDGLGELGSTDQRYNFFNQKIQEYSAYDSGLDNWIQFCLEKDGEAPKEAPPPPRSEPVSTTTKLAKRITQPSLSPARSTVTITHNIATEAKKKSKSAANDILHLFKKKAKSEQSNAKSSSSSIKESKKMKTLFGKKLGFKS

For assay [2], the target named is T2, mECitrine-Rng10(751–1038) (S. pombe) (UniProt Q9P6L9).
T2 sequence: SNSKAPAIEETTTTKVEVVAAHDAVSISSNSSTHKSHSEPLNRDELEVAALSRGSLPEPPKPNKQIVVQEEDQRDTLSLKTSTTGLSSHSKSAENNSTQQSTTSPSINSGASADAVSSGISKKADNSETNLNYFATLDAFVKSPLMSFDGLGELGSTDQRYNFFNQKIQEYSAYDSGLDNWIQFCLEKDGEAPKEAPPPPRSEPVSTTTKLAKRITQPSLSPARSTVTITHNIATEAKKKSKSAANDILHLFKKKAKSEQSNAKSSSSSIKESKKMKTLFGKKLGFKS

Assay [3] has as its target T3, Rng10-(1–200)-mEGFP (S. pombe) (UniProt Q9P6L9).
T3 sequence: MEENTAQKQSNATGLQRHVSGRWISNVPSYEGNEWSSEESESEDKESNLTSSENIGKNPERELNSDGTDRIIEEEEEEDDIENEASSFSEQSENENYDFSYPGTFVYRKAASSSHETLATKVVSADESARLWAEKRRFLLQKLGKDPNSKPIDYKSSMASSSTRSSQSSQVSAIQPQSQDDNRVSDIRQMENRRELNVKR

No constants are given. Whether binding was seen depends on the method and setting. Some entries that bind do so weakly or less than the wild type. For part of these data: Where a sequence is shown, tags or fusion partners need not be part of it.

B1: Ync13-tdTomato (protein, UniProt O13683 1-1237)
chain: MNCRRKPLPLHSNEVQAAESISKDELYSWTLKNVLILFLVQYRASTPSALQTSSFSTPVEKKTNGAFSGSLFSAKEKKDNPKYPKDFIKYLSLALESISMGKEPEYQDQLIRGCFAAFYNNINKSHISKQLKDSRKIEDMFLIFASSVSSELTKRLGTAYDSNLADRITASFIELCKRVTLKGQLASPSSEFVSHLDMYHSKLLNKSEILSTKRVNRGQDQFDLSSFPLLKVFSSVFKVAYSKALLDAEKLFPSIDEAAIAEDIGILIEDLESDACKFSHSVVDFSNYKSYSTWKARELQTLEQHRKIMLSLIPLSSSPNHPIQPIGFPASRKTPTYVPPIARPYFRQLLSLCLEYRLQVTDPVEVKQINTFIRECSIYWRILPSTRCALSMDFAREHLQKGLITSADVLTHFGELHKSLKEWEITYWPKIDVSIFSSALFGIRNALAQLLKKSLLDLLHEKKADFHRWLNIMSICVEDGKVINQDLSPKSEISSVALALQEHCKVIFDEEFDLSKLPSSNFLDEIILASNRISVRIKFLERNCSECIYGVLSLPQIFINIVLPNYIRAALVVAKEYLREKANADINDLTKDMLEIYSDLKQMIHVLQEYHNEEYRIGSFEGFFQPFIDSWLDNVEASAEQWFLRSLEKDNFDENSSEGQYSSSIVDLFHAFHQAFRTLEGFEWEDDLANARFFTRFFRVIYIVLSKYTQWTTQKFFEEANKQDDTSEVQNDNSSSWFSKARNILSGSNEVLPFRFSPTMCILLNNIHFAMHAYEELEQKIDLQRLIEALDVAESTKRHKISATNYLYTIKVVRGEGLHPDGAGKIRTSYIVLTDNKGRRIGKTRPIHSMNPRWDDTFEVKTKDALMITANLWSKGKFNDHEIFGRSSFTLSPKIYGDYLPREEWFDLNPHGELLLRIEMEGEREHIGFYVGRTYHDLERAQREMIKFIVNKMEPVINQNLSTATLKKLLSANTWMDLDKTMTSVTSLLNRTGFSSKSSENVKKEGELTDVQIEAAIYELLDYFDLNFSIIAKHLTKDVFVTVMSYVWDEVVCTTEELLLPPVSVKPINRKPLSPAQMAIVYRWLQFLKDYFYANGEGVKLPVLETDHYKELLRVQEYYDKPTDFLLQECDKIASQLYLSSRMVNNEPVESLPRHSRIKFANKEIYRSGTIRKVHIQTNESELERNERIILRILRMRADSKRFLSKHFQRKGRLLMADAMRNGYVMPLGHLKKLDSR
As for B1, the values for the binding entry in assay [1], in assay [2] and in assay [3] were “binds”, “binds” and “no binding”, respectively.
